Source: PubChem BioAssay AID624417 (National Center for Advancing Translational Sciences (NCATS), 2012)
Screen size: about 410,000 compounds; about 6,400 (1.6%) were called active. Inconclusive results, whose numbers are uncertain, are shown with a selection of clear calls. Calls follow the shape of the dose curve; as a rule, active = well fitted inhibition curve with a large enough effect; inconclusive = small, poorly fitted or top-dose-only effect; inactive = no such curve, though single readings can be large or run the other way. No potency is given beside an inconclusive call; the fits are too rough.

target: Glucagon-like peptide 1 receptor (Homo sapiens) (UniProt P43220); assay: qHTS of GLP-1 Receptor Inverse Agonists (Inhibition Mode); details: HEK293 GLP-1R CRE-luciferase, luminescence, 24 h, GLP-1R form is constitutively active; activity change, negative = inhibition: at 38.3 µM (top of the series) unless noted; also: nearly all actives have a fitted effect of over 55% in size
Chain of UniProt P43220 (P43220 whole entry, looked up): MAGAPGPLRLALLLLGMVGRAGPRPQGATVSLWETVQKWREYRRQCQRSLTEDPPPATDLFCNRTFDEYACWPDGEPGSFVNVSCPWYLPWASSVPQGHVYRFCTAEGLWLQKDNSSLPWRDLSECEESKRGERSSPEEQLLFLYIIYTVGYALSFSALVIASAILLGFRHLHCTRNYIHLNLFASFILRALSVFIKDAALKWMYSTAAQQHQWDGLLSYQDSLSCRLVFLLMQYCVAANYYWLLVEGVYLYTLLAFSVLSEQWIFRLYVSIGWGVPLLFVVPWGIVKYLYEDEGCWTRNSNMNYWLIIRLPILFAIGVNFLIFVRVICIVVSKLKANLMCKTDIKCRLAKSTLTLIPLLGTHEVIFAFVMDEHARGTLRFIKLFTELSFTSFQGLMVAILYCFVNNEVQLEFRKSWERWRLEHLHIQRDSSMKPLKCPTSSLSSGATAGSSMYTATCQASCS
In short: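 qHTS in 1536-well format: reporter HEK293 cells expressing constitutive GLP-1R activity in DMEM + 10% Nu serum, 24 hr with compounds at 37 deg C, luminescence read after 12 min with detection reagent.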
% is scaled to controls: 0 for no effect and ±100 for the full control effect; potency is read from the fitted curve at half-maximal effect; tags tell the direction and shape of the fitted curve.

| Structure (SMILES) | Potency | activity change, negative = inhibition |
| --- | --- | --- |
| COc1ccc(N2CCN(c3ccc(NC(=O)C4CCCCC4)cc3C#N)CC2)cc1 | inconclusive [inhibitor, full curve, poor fit] |  |
| Cc1cc(C)c(NC(=O)Cn2nnc(-c3nc(-c4ccncc4)no3)c2N)c(C)c1 | inactive |  |
| O=C(COC(=O)CC1c2ccccc2CCN1S(=O)(=O)c1ccc(F)cc1)Nc1ccccc1 (stereo not drawn) | inconclusive [inhibitor, partial curve] |  |
| CCOc1ccc(C2c3c(oc4ccccc4c3=O)C(=O)N2Cc2ccc3c(c2)OCO3)cc1 (stereo not drawn) | inactive |  |
| Cc1ccc(Cl)cc1N1CCN(C(=O)c2cnn(-c3ccc(Cl)cc3)c2C2CCNCC2)CC1 | inconclusive [inhibitor, partial curve, poor fit] |  |
| COc1ccc(C(CNC(=O)c2ccc(NS(=O)(=O)c3ccc4c(c3)OCCO4)cc2)N(C)C)cc1 (stereo not drawn) | inconclusive [inhibitor, partial curve, poor fit] |  |
| Cn1nc(C(C)(C)C)cc1NC(=O)C1(C)CCN1C(=O)CC(c1ccccc1)c1ccccc1 (stereo not drawn) | inactive |  |
| CC(=O)N1CCN=C1SCc1ccc(Br)cc1 | inconclusive [inhibitor, partial curve, poor fit] |  |
| CNc1ccccc1C(C)(C)c1cc(-c2cccc(OC)c2)no1 | active: 7.08 µM |  |
| CCOc1cc(C(=O)N(CC)CC(=O)Nc2c(F)cccc2F)ccc1OCC(=O)N1CCCCC1 | inactive |  |
| Cc1nnc(SC(C(=O)Nc2cc(Cl)cc(Cl)c2)c2ccccc2)[nH]c1=O (stereo not drawn) | inconclusive [inhibitor, single point] |  |
| CCCCNC(=O)C1(C)CCN1C(=O)c1ccc2c(c1)C(C)(C)CCC2(C)C (stereo not drawn) | inconclusive [inhibitor, full curve, poor fit] |  |
| Cc1ccc(S(=O)(=O)Nc2ccc3c(c2)C(=O)N([C@H](C)CO)C[C@H](C)[C@H](CN(C)C(=O)Nc2cccc4ccccc24)OCCCC[C@@H](C)O3)cc1 | inconclusive [inhibitor, full curve, poor fit] |  |
| COCCCN(C(=S)Nc1ccc(OC)cc1)C(C)c1ccncc1 (stereo not drawn) | inactive |  |
| CC(OC(=O)c1cc2c(ccc3ccccc32)oc1=O)c1nc2ccccc2s1 (stereo not drawn) | inactive |  |
| COc1ccc(CNCC(O)(c2ccccc2)c2ccccc2)cc1OC | inconclusive [inhibitor, single point] |  |
| COc1ccc(NC(=O)c2cc(S(=O)(=O)Nc3ccc(OC)cc3)cs2)cc1 | inconclusive [inhibitor, partial curve, poor fit] |  |
| C=CCn1c(CSCc2ccc(Cl)cc2)nnc1SCC(=O)NCc1ccccc1 | inconclusive [inhibitor, partial curve, poor fit] |  |
| COc1ccc(Oc2cn[nH]c2-c2ccc(OC)cc2O)cc1 | inconclusive [inhibitor, single point] |  |
| CCOc1ccc2nc(NCCNC(=O)C(C)C)c(C)cc2c1 | inconclusive [inhibitor, single point] |  |
| O=C(NCc1ccccc1)c1cccc(COc2ccc(Cl)cc2)c1 | inconclusive [inhibitor, partial curve, poor fit] |  |

| Structure (SMILES) | Potency | activity change, negative = inhibition |
| --- | --- | --- |
| Oc1ccc(/C=N/Nc2ccccc2)cc1 | inconclusive [inhibitor, partial curve, poor fit] |  |
| CC(C)Cc1nnc(NC(=O)CCC(=O)Nc2ccccc2)s1 | inconclusive [inhibitor, full curve, poor fit] |  |
| O=C(/C=C/c1ccccn1)c1cc(Cl)cc(Cl)c1O | inconclusive [inhibitor, partial curve, poor fit] |  |
| CCCCCCCCC1=NCCc2c1[nH]c1ccccc21 | inconclusive [inhibitor, partial curve, poor fit] |  |
| O=S1(=O)CC(O)C(N=Nc2c(O)n(Cc3ccccc3)c3ccccc23)C1 (stereo not drawn) | inconclusive [inhibitor, partial curve, poor fit] |  |
| CN(Cc1ccccc1)C(=O)C1CCCN(Cc2cccc(Cl)c2)C1 (stereo not drawn) | inconclusive [inhibitor, single point] |  |
| CCCC(c1nnnn1CC1CCCO1)N1CCN(c2nc3ccccc3s2)CC1 (stereo not drawn) | inconclusive [inhibitor, partial curve, poor fit] |  |
| O=C(COc1ccc(Br)cc1CNCCc1ccccc1)NCc1ccccc1 | active: 10 µM |  |
| CCCn1ncc(C(=O)NC2CCCN(Cc3ccc(Cl)cc3)C2)c1C (stereo not drawn) | inconclusive [inhibitor, partial curve, poor fit] |  |
| CCc1cc2c(=O)c(-c3ccc4c(c3)OCCO4)c(C)oc2cc1OS(C)(=O)=O | inconclusive [inhibitor, partial curve, poor fit] |  |
| Cc1nc2sc(C(=O)c3ccccc3)c(N)c2c2c1CCCC2 | inconclusive [inhibitor, partial curve, poor fit] |  |
| CN1CCN(CCCNC(=O)c2ccc3c(c2)N(Cc2ccccc2)CCS3)CC1 | inconclusive [inhibitor, partial curve, poor fit] |  |
| O=C(COc1cccc(Cl)c1)N1CCC(c2nc3ccccc3s2)CC1 | inconclusive [inhibitor, partial curve, poor fit] |  |
| Cc1ccccc1S(=O)(=O)Cc1ccc(C(=O)NC(C)c2ccccc2)o1 (stereo not drawn) | inconclusive [inhibitor, single point] |  |
| CCOC(=O)C1=CCC2C(=O)N(Cc3ccccc3)C(=O)C12 (stereo not drawn) | inactive |  |
| O=C(CN1CCCCCC1)Nc1ccccc1OC(F)F | inconclusive [inhibitor, partial curve, poor fit] |  |
| O=C(Nc1ccc2c(c1)OCCO2)NC1(C(F)(F)F)Oc2ccccc2O1 | inconclusive [inhibitor, single point] |  |
| CC1CCc2sc(C(=O)NCC(c3ccco3)N3CCCCC3)cc2C1 (stereo not drawn) | active: 8.91 µM |  |
| CC(NC(=O)NC1CCCCC1)C(c1cccs1)N1CCN(Cc2ccccc2)CC1 (stereo not drawn) | inconclusive [inhibitor, single point] |  |
| Cc1ccc(C)c(OCC(O)CN2CCN(CCN3C(=O)c4cccc5cccc(c45)C3=O)CC2)c1 (stereo not drawn) | inconclusive [inhibitor, partial curve, poor fit] |  |
| CCOc1c2c(nc3ccc(Cl)cc13)CCC2 | inactive |  |

| Structure (SMILES) | Potency | activity change, negative = inhibition |
| --- | --- | --- |
| CCOC(=O)/C(=C\c1cccc(O)c1)c1nc2sc(C)c(C)c2c(=O)[nH]1 | inconclusive [inhibitor, single point] |  |
| O=S(=O)(c1cccc(C(F)(F)F)c1)N1c2ccccc2-n2cccc2C1c1cccnc1 (stereo not drawn) | active: 10 µM |  |
| Cc1cccc(C)c1NC(=O)C(C1CC1)n1c(-c2ccc(-c3ccccc3)cc2)nc2ccccc21 (stereo not drawn) | inconclusive [inhibitor, single point] |  |
| CCC(C(=O)N1CC2(C)CC1CC(C)(C)C2)N1C(=O)c2ccccc2C1=O (stereo not drawn) | inconclusive [inhibitor, partial curve, poor fit] |  |
| O=C1CCC2CN3CCc4c([nH]c5ccccc45)C3CC2C1 (stereo not drawn) |  | inconclusive: -40.9% [inhibitor] |
| COC(=O)c1ccc(Cl)c(NS(=O)(=O)c2ccc3c(c2)OCCO3)c1 | inconclusive [inhibitor, partial curve] |  |
| COc1ccc(C(C(=O)NCc2ccccc2)n2c(=O)c(-c3ccccc3)nc3ccccc32)cc1 (stereo not drawn) | inconclusive [inhibitor, partial curve, poor fit] |  |
| O=C(Nc1cccc(S(=O)(=O)Nc2ccc(Cl)cc2)c1)c1ccccn1 | inconclusive [inhibitor, partial curve, poor fit] |  |
| COc1ccccc1OCCn1c(NC(=O)c2ccccc2)nc2ccccc21 | inactive |  |
| Cc1ccc2[nH]c(C(=O)O)c(NC(=O)CN3CCN(c4cccc(C)c4C)CC3)c2c1 | active: 10 µM |  |
| COc1ccccc1-c1cc(C(F)(F)F)n2ncc(C(=O)N3CCc4ccccc4C3)c2n1 | inconclusive [inhibitor, partial curve, poor fit] |  |
| CCc1cccc(CC)c1NC(=O)CN1CCN(c2ccccc2)CC1 | inactive |  |
| CN(Cc1ccccc1)S(=O)(=O)c1ccc(F)c(C(=O)Nc2cc(Cl)cc(Cl)c2)c1 | inconclusive [inhibitor, single point] |  |
| CC1CC(C)C(=O)C(C(CC2CC(=O)NC(=O)C2)OC(=O)CC(=O)c2ccccc2)C1 (stereo not drawn) | inconclusive [inhibitor, partial curve, poor fit] |  |
| CCOc1cc(S(=O)(=O)NCCc2ccccc2C)c(OCC)cc1-n1cnnn1 | inactive |  |
| CCc1ccccc1NC(=S)N(CCN(C)C)Cc1cccs1 | inconclusive [inhibitor, single point] |  |
| Cc1ccc(S(=O)(=O)c2c(C)cc(C)nc2N2CCCCC2)cc1 | inconclusive [inhibitor, single point] |  |
| COc1ccc(-c2csc(C(C)(O)c3ccc(F)c(F)c3)n2)cc1 (stereo not drawn) | inconclusive [inhibitor, single point] |  |
| Cc1nn(CCc2nn[nH]n2)c2nc(-c3ccc(C4CCCCC4)cc3)cc(C(F)(F)F)c12 | inconclusive [inhibitor, full curve] |  |
| Cc1cc(C)c(OCCOCCN2CCNCC2)c(C)c1 | active: 10 µM |  |
| O=C(Nc1cc(-c2nc3cc(Cl)ccc3o2)ccc1Cl)c1cc2ccccc2o1 | inactive |  |
